What is called pIC50 is the negative decadic logarithm of the IC50, by convention in mol/L.

pIC50: −log10 of the molar value.

Chain of UniProt O14744 (O14744 whole entry): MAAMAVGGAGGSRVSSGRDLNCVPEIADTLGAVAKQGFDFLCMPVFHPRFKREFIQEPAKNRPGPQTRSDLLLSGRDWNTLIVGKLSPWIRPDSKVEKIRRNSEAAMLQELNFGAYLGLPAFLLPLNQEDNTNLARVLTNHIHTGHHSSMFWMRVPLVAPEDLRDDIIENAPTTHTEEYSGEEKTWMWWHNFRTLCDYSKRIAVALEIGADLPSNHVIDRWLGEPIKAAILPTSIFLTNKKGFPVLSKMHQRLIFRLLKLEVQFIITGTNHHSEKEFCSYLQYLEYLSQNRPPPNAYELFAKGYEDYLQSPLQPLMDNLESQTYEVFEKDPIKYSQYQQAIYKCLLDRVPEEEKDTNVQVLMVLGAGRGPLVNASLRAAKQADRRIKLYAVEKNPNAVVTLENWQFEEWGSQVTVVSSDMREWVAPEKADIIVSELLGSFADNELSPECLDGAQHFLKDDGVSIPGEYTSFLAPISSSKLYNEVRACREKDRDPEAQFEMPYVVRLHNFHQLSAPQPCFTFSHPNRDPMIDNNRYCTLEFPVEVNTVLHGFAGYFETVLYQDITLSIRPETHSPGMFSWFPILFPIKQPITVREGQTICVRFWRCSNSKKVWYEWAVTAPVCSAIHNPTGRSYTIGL
Chain of UniProt O14744 (Q9BQA1 whole entry partner): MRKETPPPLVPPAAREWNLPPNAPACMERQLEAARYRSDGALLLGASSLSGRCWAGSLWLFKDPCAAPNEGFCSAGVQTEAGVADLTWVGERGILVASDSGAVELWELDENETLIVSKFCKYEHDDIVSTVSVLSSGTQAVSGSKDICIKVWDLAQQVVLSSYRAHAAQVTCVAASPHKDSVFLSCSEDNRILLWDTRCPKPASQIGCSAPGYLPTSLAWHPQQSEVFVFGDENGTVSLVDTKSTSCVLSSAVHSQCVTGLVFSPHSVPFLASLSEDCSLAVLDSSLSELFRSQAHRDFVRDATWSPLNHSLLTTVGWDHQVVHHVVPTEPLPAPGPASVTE

For the experiment, the target named is PRMT5/MEP50 Complex (Homo sapiens (Human), UniProt O14744). As to the kind of experiment: PRMT5 inhibition based on TR-FRET assay. It counts as biochemical. The following applies: 32 nM PRMT5:MEP50, 50 nM Histone-H4 peptide, 1 μM SAM. The text has this: PRMT5 Inhibition Based on TR-FRET Assay:
Protein arginine methyltransferase 5 (PRMT5) is a type II arginine methyltransferase that catalyze mono- and symmetric demethylation on arginine residues of histone or non-histone proteins in presence of S-adenosylmethionine (AdoMet or SAM) a cofactor responsible for donating the methyl group. PRMT5 is reported to be overexpressed in several human cancers. To identify compounds that inhibit the PRMT5 and decrease its activity, a TR-FRET based assay has been established. Time-resolved fluorescence resonance energy transfer (TR-FRET) HTS assays are homogeneous proximity assays where the interaction of two dye-labeled binding partners is detected by the energy transfer between a donor and an acceptor dye and the subsequent light emission by the acceptor dye. PRMT5 catalyzes Histone H4 peptide which is biotin tagged to the Lysine amino acid at carboxyl end, in presence of S-adenosyl-1-methionine (SAM) to methylate the peptide. The antibody specific to mono methylated H4 peptide (H4R3) with Ig conjugate binds to the methylated peptide, indirectly binding to the Europium lanthanide. SureLight Allophycocyanin-Streptavidin binds to the biotin tag of the peptide, therefore accepting the energy transferred from the Europium lanthanide. This energy transfer between Europium to SureLight Allophycocyanin is a direct measure of the activity/inhibition of the PRMT5 enzyme.
Assay buffer: 20 mM BICINE (pH 7.6), 25 mM NaCl, 2 mM DTT, 0.01% Tween-20 and 0.01% BSA.
The compound dilutions were prepared as 7.5% DMSO stock solutions in assay buffer. To 2 μL (7.5×) of test compound, 5 μL of PRMT5 enzyme prepared in assay buffer (Final concentration of 32 nM in 15 μL reaction volume) was added and allowed for 30 minutes pre-incubation time in a white polystyrene 384-well plate at room temperature. […] The plates were then read on Victor-3 with Excitation at 340 nm and Emissions collected at 615 and 665 nm in TR-FRET protocol. […]
On the technique in general: Time-resolved FRET reads energy transfer from a long-lived donor to a nearby acceptor.
As for `O=C(c1ccc(N2CCN(CC(O)CN3CCc4ccccc4C3)C2=O)nc1)N1CCCCC1` (stereo not drawn) [Example 34, 1-(3-(3,4-dihydroisoquinolin-2(1H)-yl)-2-hydroxypropyl)-3-(5-(piperidine-1-carbonyl)pyridin-2-yl)imidazolidin-2-one], the pIC50 was 5.47.
Compound `N#Cc1cc(CN2CCN(CC(O)CN3CCc4ccccc4C3)C2=O)ccn1` (stereo not drawn) [Example 42] showed a pIC50 of 6.43.
Compound `O=C1N(Cc2ccc3c(c2)COCC3)CCN1CC(O)CN1CCc2ccccc2C1` (stereo not drawn) [Example 43, 1-(3-(3,4-Dihydroisoquinolin-2(1H)-yl)-2-hydroxypropyl)-3-(isochroman-7-ylmethyl)imidazolidin-2-one] showed a negative logarithm of the IC50 (pIC50) of 6.57. The pIC50 values of the last two compounds are within 0.2 log units of each other.

Values taken from US11365205B2 (Aurigene Discovery Technologies Limited, priority 2018, dated 2022).
